# Assay results as given in PubChem BioAssay (NCI).
#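 Five concentrations, 48 hours, 96-well plates. Abbreviation: GI50, concentration required for 50% inhibition of growth. TGI: total growth inhibition.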
# Tested on: NCI-H322M lung
# Test: growth of human tumour cells (NCI), 48 h
Structure (SMILES),TGI,GI50
CCC(C)[C@@H](NCc1ccccc1)[C@H](OCc1ccccc1)[C@@H]1COC(C)(C)O1 (some centres undefined),67 µM,
COc1c2c(c3c(c1C1OC(C)[C@@H](C)O1)CC(C)(C)O3)C(=O)c1ccccc1C2=O (some centres undefined),> 100 µM,
CN1C/C(=C\c2cccs2)C2=NC(=S)NC(c3cccs3)C2C1 (centres undefined),> 100 µM,
Cc1nc2c(=S)[nH]ncc2[nH]1,> 100 µM,
O=C(c1ccccc1)c1c(NCC(O)CN2CCCC2)n(Cc2ccccc2)c(=O)n(Cc2ccccc2)c1=O (centres undefined),42.1 µM,20 µM
C=CCNC(=S)Nc1sc2c(c1C(=O)OCC)CC(C)CC2 (centres undefined),56.5 µM,
Clc1ccc2c(SCC3CO3)c3ccccc3nc2c1 (centres undefined),19.7 µM,
CCOc1ccc2nc(NC(=O)C(=O)C(C(=O)c3ccccc3-c3ccccc3)C3OC(=O)c4ccccc43)sc2c1 (centres undefined),57.9 µM,
CCOc1ccc(NC(=O)CC2SC(=Nc3ccc(Cl)cc3)NC2=O)cc1 (centres undefined),> 100 µM,
CN(C)c1nc2sc3c(c2c(=O)o1)CCCC3,> 100 µM,
CN(C)CCNc1ccc(C(=O)NCCCN(C)CCCNC(=O)c2ccc(NCCN(C)C)c3c(=O)c4ccccc4[nH]c23)c2[nH]c3ccccc3c(=O)c12,2.22 µM,
Cc1ccc(C(=O)O/N=C2/CCCC/C2=C\c2ccccc2)cc1,> 100 µM,
C=C1C(=O)O[C@H]2[C@H]1CC/C(CNC(=O)/C=C/c1ccc(Br)cc1)=C\CC[C@@]1(C)O[C@@H]21,9.91 µM,2.62 µM
CC(C)(C)OC(=O)CN1CCNCCNCC1,> 100 µM,
CCCN(CCC)CCCNCc1cc(I)cc(C)c1O,30.1 µM,15.7 µM
CC/C(Cc1ccccc1)=C(\c1ccc(OCCN2CCCCCC2)cc1)c1ccc(OC(=O)NCc2ccccc2)cc1,12.5 µM,5.83 µM
FC(F)(F)C1(Cl)C(c2ccccc2)=C1c1ccccc1,32 µM,
Cc1ccc(C2CC(=O)CC(c3ccc(C)cc3)C23C(=O)NC(=O)NC3=O)cc1 (centres undefined),> 100 µM,
CC(=O)OCC1OC(Nc2[nH]c(=O)n(C)c(=O)c2-c2csc(N)n2)C(OC(C)=O)C(OC(C)=O)C1OC(C)=O (centres undefined),> 100 µM,
O=C1c2ccccc2C2CNC1(O)c1ccccc12 (centres undefined),> 100 µM,

Structure (SMILES),TGI,GI50
C1=C\SS/C=C\SS/C=C\SS/C=C\SS/1,> 100 µM,
CCC[CH2][Sn]([CH2]CCC)([O]C(=O)c1c(F)cccc1F)[O]C(=O)c1c(F)cccc1F,2.91 µM,1.57 µM
COc1cc2c(cc1OC)C13CCN4C=C5CCOC6CC(=O)N2C1C6C5CC43 (centres undefined),> 100 µM,
COC(=O)Cc1cc(OC)c(OC)cc1Br,> 100 µM,
COc1cccc2c1C(=O)c1c(O)c3c(c(O)c1C2=O)CC(O)(C(C)=O)CC3OC1CC(N)C(O)C(C)O1 (centres undefined),2.46 µg/mL,0.0709 µg/mL
CCC1(C)NN=c2s/c(=C/c3ccc(OC)cc3)c(=O)n2N1 (centres undefined),> 100 µM,
Cn1cc(-c2nonc2-c2c[nH]c3ccccc23)c2ccccc21,20.8 µM,1.74 µM
O=[As](O)(O)c1ccc(NCc2ccccc2)cc1,> 100 µM,
Cc1ccc(S(=O)(=O)N/N=C/c2oc(-c3cccc([N+](=O)[O-])c3)c(-c3cccc([N+](=O)[O-])c3)c2[N+](=O)[O-])cc1,> 100 µM,
OCCOc1ccc(-c2cc(-c3ccccn3)nc(-c3ccccn3)c2)cc1,32.4 µM,
CC12CC3C(CC1SCC(=O)O2)C3(C)C (centres undefined),> 100 µM,
Cc1cccc(C(=O)c2cccc3ccccc23)c1C(=O)O,> 100 µM,
COc1ccc(S(=O)(=O)NC(C)C(=O)O)cc1 (centres undefined),> 100 µM,
O=C1C2CCCCC2C(=O)N1n1c(Cc2ccc(Cl)cc2)n[nH]c1=O (centres undefined),> 100 µM,
CC(C)(C)OC(=O)NCCNC1=CC(=O)c2nc3ccccc3c3ccnc1c23,93.6 µM,24.9 µM
COc1cc(/C=C2/SC(c3ccccc3)N(c3ccc(NC(C)=O)cc3)C2=O)cc(OC)c1OC (centres undefined),> 100 µM,
CC1=C([Se]CC(OC(=O)[C@@H](CSSC(C)(C)C)NC(=O)OC(C)(C)C)C(=O)NC(C)(C)C)C(=O)c2ccccc2C1=O (some centres undefined),1.18 µM,0.299 µM
C1OCC2S[C@@H]3COCO[C@@H]3C2O1 (some centres undefined),> 100 µM,
C1=C(c2ccccc2)CN(c2ccccc2)OC1,> 100 µM,
O=C(O)c1ccccc1Cc1ccco1,> 100 µM,
